Results on 8 molecules are retold here after US20200181257A1 (Chugai, published 2020).

Assay in all cases: SPR, antibody captured on Protein A
For assay [1], the target named is T1, human Fcγ receptor hFcgRIIIa (V) (human, UniProt P08637 in part).
T1 construct: also called FcγRIIIa allotype V158; FcγIIIA
Here is the method: (§1) The CH2 domain, which was modified in this examination, is known to be involved in interaction with several human Fcγ receptors (hereinafter denoted as hFcgRs) which affect effector functions. Therefore, the binding of TS1 and TS19 prepared by using the H chain of anti-IL6R produced in Example 2 to hFcgRs was measured, according to the method described in Reference Example 3.
(§2) Interactions between antibodies and hFcgRs (hFcgRIa, hFcgRIIa(R), hFcgRIIa(H), hFcgRIIb, hFcgRIIIa(F), and hFcgRIIIa(V)) were analyzed using Biacore T100 (GE Healthcare). HBS-EP+(GE Healthcare) was used for the running buffer, and the measurement temperature was set at 25° C. Protein A (Invitrogen) was immobilized by the amino coupling method, and an antibody of interest was captured thereon. Then, hFcγR solutions diluted using the running buffer were injected to allow interaction with the captured antibody at a flow rate of 30 μL/min for five minutes for hFcγRIa, and at a flow rate of 5 μL/min for one minute for the other hFcγRs. […] Since the hFcγR binding level depends on the amount of captured antibodies, the FcgR-binding levels were corrected so that the capture level of each antibody would be 200 RU (resonance unit) for hFcgRIa and 1000 RU (resonance unit) for the other hFcgRs. The captured antibodies were washed by allowing 10 mM glycine-HCl (pH 1.5) to react for 30 seconds at a flow rate of 30 μL/min to recycle the chip for reuse.

Assay [2] addresses T2, human Fcγ receptor hFcgRIIb (human, UniProt P31994 43-217, limits assumed).
T2 construct: Construct used in the SPR assay is not described; also called FcγRIIb; FcγIIB
T2 sequence: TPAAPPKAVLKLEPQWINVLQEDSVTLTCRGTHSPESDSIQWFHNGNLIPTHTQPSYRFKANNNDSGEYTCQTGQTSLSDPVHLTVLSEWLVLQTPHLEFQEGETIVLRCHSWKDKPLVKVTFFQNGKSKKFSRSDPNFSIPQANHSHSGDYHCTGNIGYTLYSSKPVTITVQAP
Here is the method:
as §1, §2

Assay [3] addresses T3, human Fcγ receptor hFcgRIa (human, UniProt P12314 16-292, limits assumed).
T3 construct: Construct used in the SPR assay is not described; also called hFcγRIa; FcγI
Here is the method:
as §1, §2

Assay [4] has as its target T4, human Fcγ receptor hFcgRIIa (R) (human, UniProt P12318 36-217).
T4 construct: also called FcγRIIa (type R); FcγIIA
T4 chain: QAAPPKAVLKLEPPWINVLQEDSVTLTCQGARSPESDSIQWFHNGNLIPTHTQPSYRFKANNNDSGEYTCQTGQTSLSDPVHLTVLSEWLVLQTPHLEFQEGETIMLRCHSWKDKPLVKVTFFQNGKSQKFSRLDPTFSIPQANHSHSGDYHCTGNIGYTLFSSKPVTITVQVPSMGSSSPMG
The procedure: as §1, §2

Assay [5] concerns the target T5, human Fcγ receptor hFcgRIIa (H) (human, UniProt P12318 36-217).
T5 construct: also called FcγRIIa (type H); FcγIIA
T5 sequence: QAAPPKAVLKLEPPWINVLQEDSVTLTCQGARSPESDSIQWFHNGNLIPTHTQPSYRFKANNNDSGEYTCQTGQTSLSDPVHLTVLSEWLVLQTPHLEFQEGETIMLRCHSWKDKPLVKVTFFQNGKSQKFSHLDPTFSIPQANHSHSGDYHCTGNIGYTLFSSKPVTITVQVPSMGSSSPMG
The procedure: as §1, §2

T3 sequence (P12314 16-292 limits assumed): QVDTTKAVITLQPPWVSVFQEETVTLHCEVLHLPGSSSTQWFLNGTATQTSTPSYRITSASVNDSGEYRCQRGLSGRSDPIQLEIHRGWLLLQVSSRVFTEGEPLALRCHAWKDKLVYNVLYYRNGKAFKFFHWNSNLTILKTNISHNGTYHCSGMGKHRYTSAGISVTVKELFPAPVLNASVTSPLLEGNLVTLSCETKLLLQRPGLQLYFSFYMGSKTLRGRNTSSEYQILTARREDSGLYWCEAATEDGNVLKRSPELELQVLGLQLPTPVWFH
T1 sequence (P08637 other isoform, or with tags, fused parts or gaps limits assumed): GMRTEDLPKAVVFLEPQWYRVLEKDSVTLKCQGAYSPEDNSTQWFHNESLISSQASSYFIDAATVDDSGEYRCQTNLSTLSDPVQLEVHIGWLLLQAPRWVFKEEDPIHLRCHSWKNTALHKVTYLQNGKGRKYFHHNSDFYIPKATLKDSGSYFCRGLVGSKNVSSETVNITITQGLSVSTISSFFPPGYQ

B1: TS4 (antibody)
heavy: QVQLQESGPGLVRPSQTLSLTCTVSGYSITSDHAWSWVRQPPGRGLEWIGYISYSGITTYNPSLKSRVTMLRDTSKNQFSLRLSSVTAADTAVYYCARSLARTTAMDYWGQGSLVTVSS[human IgG1 constant region with Q295M Y300E (EU numbers) not shown]
light: DIQMTQSPSSLSASVGDRVTITCRASQDISSYLNWYQQKPGKAPKLLIYYTSRLHSGVPSRFSGSGSGTDFTFTISSLQPEDIATYYCQQGNTLPYTFGQGTKVEIKRTVAAPSVFIFPPSDEQLKSGTASVVCLLNNFYPREAKVQWKVDNALQSGNSQESVTEQDSKDSTYSLSSTLTLSKADYEKHKVYACEVTHQGLSSPVTKSFNRGEC
notes: anti-IL6R IgG1, G1d with Q295M/Y300E (EU); also called TS04
On to B1, for which the “binding relative to G1 (=100)” value in assay [1] came out at 99.2; in assay [2], 220; in assay [3], 99.3; in assay [4], 148; in assay [5] it was 106.

B2: TS9 (antibody)
heavy: QVQLQESGPGLVRPSQTLSLTCTVSGYSITSDHAWSWVRQPPGRGLEWIGYISYSGITTYNPSLKSRVTMLRDTSKNQFSLRLSSVTAADTAVYYCARSLARTTAMDYWGQGSLVTVSS[human IgG1 constant region with L234K L235K (EU numbers) not shown]
light: DIQMTQSPSSLSASVGDRVTITCRASQDISSYLNWYQQKPGKAPKLLIYYTSRLHSGVPSRFSGSGSGTDFTFTISSLQPEDIATYYCQQGNTLPYTFGQGTKVEIKRTVAAPSVFIFPPSDEQLKSGTASVVCLLNNFYPREAKVQWKVDNALQSGNSQESVTEQDSKDSTYSLSSTLTLSKADYEKHKVYACEVTHQGLSSPVTKSFNRGEC
notes: anti-IL6R IgG1, G1d with L234K/L235K (EU); also called TS09
On to B2, for which the “binding relative to G1 (=100)” value in assay [1] was 0.5; in assay [2], 1.4; in assay [4], 1.3; in assay [5], 0.5.

B3: TS14 (antibody)
heavy: QVQLQESGPGLVRPSQTLSLTCTVSGYSITSDHAWSWVRQPPGRGLEWIGYISYSGITTYNPSLKSRVTMLRDTSKNQFSLRLSSVTAADTAVYYCARSLARTTAMDYWGQGSLVTVSS[human IgG1 constant region with H268M D270F (EU numbers) not shown]
light: DIQMTQSPSSLSASVGDRVTITCRASQDISSYLNWYQQKPGKAPKLLIYYTSRLHSGVPSRFSGSGSGTDFTFTISSLQPEDIATYYCQQGNTLPYTFGQGTKVEIKRTVAAPSVFIFPPSDEQLKSGTASVVCLLNNFYPREAKVQWKVDNALQSGNSQESVTEQDSKDSTYSLSSTLTLSKADYEKHKVYACEVTHQGLSSPVTKSFNRGEC
notes: anti-IL6R IgG1, G1d with H268M/D270F (EU)
B3: the “binding relative to G1 (=100)” value in assay [1] came out at 10.1; in assay [3], 87.1; in assay [4], 3.4; in assay [5] it was 29.4.

B4: TS17 (antibody)
heavy: QVQLQESGPGLVRPSQTLSLTCTVSGYSITSDHAWSWVRQPPGRGLEWIGYISYSGITTYNPSLKSRVTMLRDTSKNQFSLRLSSVTAADTAVYYCARSLARTTAMDYWGQGSLVTVSS[human IgG1 constant region with S239K N325G (EU numbers) not shown]
light: DIQMTQSPSSLSASVGDRVTITCRASQDISSYLNWYQQKPGKAPKLLIYYTSRLHSGVPSRFSGSGSGTDFTFTISSLQPEDIATYYCQQGNTLPYTFGQGTKVEIKRTVAAPSVFIFPPSDEQLKSGTASVVCLLNNFYPREAKVQWKVDNALQSGNSQESVTEQDSKDSTYSLSSTLTLSKADYEKHKVYACEVTHQGLSSPVTKSFNRGEC
notes: anti-IL6R IgG1, G1d with S239K/N325G (EU)
For B4, the “binding relative to G1 (=100)” value in assay [1] was determined as 1.9; in assay [3] it was 9; in assay [4], 2.7; in assay [5] it was 1.

B5: TS5 (antibody)
heavy: QVQLQESGPGLVRPSQTLSLTCTVSGYSITSDHAWSWVRQPPGRGLEWIGYISYSGITTYNPSLKSRVTMLRDTSKNQFSLRLSSVTAADTAVYYCARSLARTTAMDYWGQGSLVTVSS[human IgG1 constant region with Q295L (EU numbers) not shown]
light: DIQMTQSPSSLSASVGDRVTITCRASQDISSYLNWYQQKPGKAPKLLIYYTSRLHSGVPSRFSGSGSGTDFTFTISSLQPEDIATYYCQQGNTLPYTFGQGTKVEIKRTVAAPSVFIFPPSDEQLKSGTASVVCLLNNFYPREAKVQWKVDNALQSGNSQESVTEQDSKDSTYSLSSTLTLSKADYEKHKVYACEVTHQGLSSPVTKSFNRGEC
notes: anti-IL6R IgG1, G1d with Q295L (EU); also called TS05
Turning to B5, the “binding relative to G1 (=100)” value turned out to be 106 in assay [1], 158 in assay [2] and 97.3 in assay [3].

B6: TS19 (antibody)
heavy: QVQLQESGPGLVRPSQTLSLTCTVSGYSITSDHAWSWVRQPPGRGLEWIGYISYSGITTYNPSLKSRVTMLRDTSKNQFSLRLSSVTAADTAVYYCARSLARTTAMDYWGQGSLVTVSS[human IgG1 constant region with S239K N325H (EU numbers) not shown]
light: DIQMTQSPSSLSASVGDRVTITCRASQDISSYLNWYQQKPGKAPKLLIYYTSRLHSGVPSRFSGSGSGTDFTFTISSLQPEDIATYYCQQGNTLPYTFGQGTKVEIKRTVAAPSVFIFPPSDEQLKSGTASVVCLLNNFYPREAKVQWKVDNALQSGNSQESVTEQDSKDSTYSLSSTLTLSKADYEKHKVYACEVTHQGLSSPVTKSFNRGEC
notes: anti-IL6R IgG1, G1d with S239K/N325H (EU)
For the molecule B6, the “binding relative to G1 (=100)” value in assay [1] worked out at 4.2; in assay [3] it was 10.7; in assay [4] it was 3.5; in assay [5], 2.3.

B7: TS6 (antibody)
heavy: QVQLQESGPGLVRPSQTLSLTCTVSGYSITSDHAWSWVRQPPGRGLEWIGYISYSGITTYNPSLKSRVTMLRDTSKNQFSLRLSSVTAADTAVYYCARSLARTTAMDYWGQGSLVTVSS[human IgG1 constant region with K326S A330H (EU numbers) not shown]
light: DIQMTQSPSSLSASVGDRVTITCRASQDISSYLNWYQQKPGKAPKLLIYYTSRLHSGVPSRFSGSGSGTDFTFTISSLQPEDIATYYCQQGNTLPYTFGQGTKVEIKRTVAAPSVFIFPPSDEQLKSGTASVVCLLNNFYPREAKVQWKVDNALQSGNSQESVTEQDSKDSTYSLSSTLTLSKADYEKHKVYACEVTHQGLSSPVTKSFNRGEC
notes: anti-IL6R IgG1, G1d with K326S/A330H (EU); also called TS06
B7: the “binding relative to G1 (=100)” value is 90.6 in assay [1]; 142 in assay [2]; 101 in assay [3]; 123 in assay [4]; 120 in assay [5].

B8: TS18 (antibody)
heavy: QVQLQESGPGLVRPSQTLSLTCTVSGYSITSDHAWSWVRQPPGRGLEWIGYISYSGITTYNPSLKSRVTMLRDTSKNQFSLRLSSVTAADTAVYYCARSLARTTAMDYWGQGSLVTVSS[human IgG1 constant region with S239K N325M (EU numbers) not shown]
light: DIQMTQSPSSLSASVGDRVTITCRASQDISSYLNWYQQKPGKAPKLLIYYTSRLHSGVPSRFSGSGSGTDFTFTISSLQPEDIATYYCQQGNTLPYTFGQGTKVEIKRTVAAPSVFIFPPSDEQLKSGTASVVCLLNNFYPREAKVQWKVDNALQSGNSQESVTEQDSKDSTYSLSSTLTLSKADYEKHKVYACEVTHQGLSSPVTKSFNRGEC
notes: anti-IL6R IgG1, G1d with S239K/N325M (EU)
On to B8, for which the “binding relative to G1 (=100)” value amounted to 1.8 in assay [1], 10.9 in assay [2], 11.5 in assay [3] and 2.3 in assay [5].
